# Data as given in PubChem BioAssay AID1468 (National Center for Advancing Translational Sciences (NCATS), 2008).
# Hit rate of the full screen: of about 280,000 compounds, about 1,100 (0.39%) were called active. This list was built around the results that the source calls inconclusive (neither active nor inactive); the mix of calls is not that of the screen. The call rests on the fitted dose curve; in most records, active means well fitted inhibition curve with a large enough effect; inconclusive means small, poorly fitted or top-dose-only effect, or effect the other way; inactive means flat fitted curve, though single readings scatter. No potency is given beside an inconclusive call; the fits are too rough.
# Target: Microtubule-associated protein tau (Homo sapiens) (UniProt P10636)
# Experiment: qHTS for Inhibitors of Tau Fibril Formation, Fluorescence Polarization; further: nearly all actives have a fitted effect of over 55% in size
# Conditions: K18 P301L tau heparin fibrillization, Alexa594 FP, 6 h; series mostly up to 57.7 µM
# Summary of the method: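 Quantitative HTS format: compounds meet 15 uM recombinant K18 P301L tau and Alexa 594-tau tracer in 100 mM sodium acetate pH 7; 20 uM heparin triggers fibrillization at 37 C over 6 hr; FP gives the signal.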
# On the % scale 0 is the no-effect control and ±100 the full control effect; potency means the concentration at half of the fitted maximal effect; tags describe the fitted curve by direction and shape.
# Sequence of UniProt P10636 (P10636 whole entry, looked up): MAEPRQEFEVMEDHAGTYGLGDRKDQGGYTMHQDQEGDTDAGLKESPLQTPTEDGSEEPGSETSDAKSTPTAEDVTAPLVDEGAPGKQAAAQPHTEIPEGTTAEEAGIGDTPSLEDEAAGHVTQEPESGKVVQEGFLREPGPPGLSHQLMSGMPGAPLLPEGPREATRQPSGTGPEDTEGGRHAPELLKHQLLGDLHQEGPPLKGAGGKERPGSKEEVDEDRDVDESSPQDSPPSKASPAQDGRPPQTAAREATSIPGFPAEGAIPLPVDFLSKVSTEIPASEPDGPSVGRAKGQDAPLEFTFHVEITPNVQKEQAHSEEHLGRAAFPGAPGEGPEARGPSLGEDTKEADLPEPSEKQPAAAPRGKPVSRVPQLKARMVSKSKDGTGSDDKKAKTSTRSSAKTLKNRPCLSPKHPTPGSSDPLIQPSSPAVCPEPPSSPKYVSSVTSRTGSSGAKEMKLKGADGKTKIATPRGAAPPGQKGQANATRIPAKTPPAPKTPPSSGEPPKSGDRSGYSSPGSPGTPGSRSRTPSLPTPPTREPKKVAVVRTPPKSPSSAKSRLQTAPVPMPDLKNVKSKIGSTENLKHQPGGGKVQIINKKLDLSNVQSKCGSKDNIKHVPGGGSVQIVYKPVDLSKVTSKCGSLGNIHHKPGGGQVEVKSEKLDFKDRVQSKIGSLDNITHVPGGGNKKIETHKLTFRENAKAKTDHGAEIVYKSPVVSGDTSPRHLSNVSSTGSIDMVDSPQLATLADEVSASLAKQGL
SMILES,Potency,"activity, negative = inhibition"
COc1ccc(-c2csc(NC(=O)COC(=O)Cc3ccc(Cl)cc3Cl)n2)cc1,"inconclusive [inhibitor, full curve]",
COC(=O)c1cc2sccc2n1Cc1ccccc1,"inconclusive [inhibitor, partial curve, poor fit]",
COc1ccc(OC)c(CCNC(=O)Cn2sc3nc(C)cc(C)c3c2=O)c1,"inconclusive [inhibitor, partial curve]",
O=[N+]([O-])c1ccc(O)c2ncccc12,"inconclusive [inhibitor, single point]",
COc1ccc(C)cc1NCc1cc(=O)oc2cc(-c3ccccc3)c(O)cc12,"inconclusive [activator, partial curve]",
COc1cccc(NS(=O)(=O)c2ccc3[nH]cc(C(=O)NC4CCCCC4)c(=O)c3c2)c1,active: 7.08 µM,
O=C(CSC1=Nc2ccccc2N=C(c2ccc(F)cc2)C1)Nc1cc(F)ccc1F,"inconclusive [inhibitor, partial curve, poor fit]",
CN(/N=C/c1ccc(Br)o1)C1=NS(=O)(=O)c2ccccc21,"inconclusive [inhibitor, single point]",
Cc1cccn2c(=O)c(/C=C3\SC(=S)NC3=O)c(NCCCN3CCOCC3)nc12,"inconclusive [inhibitor, single point]",
N/C(Cc1cccc2ccccc12)=N\OC(=O)COc1ccccc1,"inconclusive [inhibitor, single point]",
CN(Cc1cccs1)c1nc(-c2cccnc2)nc2ccccc12,"inconclusive [inhibitor, single point]",
COc1ccc(OCC(O)CNC(=O)c2ccc(Br)cc2)cc1 (stereo not given),inactive,
COc1ccc(Br)cc1CN(C)CC(=O)Nc1cc([N+](=O)[O-])ccc1OC,"inconclusive [inhibitor, partial curve]",
Cc1cccc2sc(N(CCCN(C)C)C(=O)COc3ccc(Cl)cc3)nc12,"inconclusive [inhibitor, partial curve]",
CCCCN(CC)CCCNC(=O)c1cn(C)c2ccc(S(=O)(=O)N(C)C3CCCCC3)cc2c1=O,inactive,
C=C(C)CNC(=S)NNC(=O)CCn1c2cc(Cl)ccc2c2ccc(Cl)cc21,"inconclusive [inhibitor, single point]",
Cn1cnnc1SCC(=O)c1cccc([N+](=O)[O-])c1,inactive,
CCc1cccc(NC(=O)Cn2c(=O)n(CC3CCC(C(=O)NCCc4ccccc4)CC3)c(=O)c3ccccc32)c1 (stereo not given),"inconclusive [inhibitor, single point]",
COCCNC(=O)C(=O)Nc1c2c(nn1-c1ccccc1)CS(=O)(=O)C2,inactive,
Cc1ccccc1NC(=O)CSc1nc2ccc(NC(=O)COc3ccccc3F)cc2s1,"inconclusive [inhibitor, single point]",
O=C(Nc1ccc(Oc2cccc(C(F)(F)F)c2)nc1)c1cccs1,"inconclusive [inhibitor, partial curve]",
CCOc1ccc(N(CC(=O)Nc2ccc(F)c(F)c2)S(=O)(=O)c2c(C)noc2C)cc1,"inconclusive [inhibitor, partial curve]",

SMILES,Potency,"activity, negative = inhibition"
COc1cc(C(=O)Nc2ccc(-c3cc(C(F)(F)F)nn3-c3ccccc3)cc2)cc(OC)c1OC,"inconclusive [inhibitor, partial curve]",
COc1ccc(/C(O)=C2\C(=O)C(=O)N(Cc3ccco3)C2c2cc(OC)ccc2OC)cc1 (stereo not given),"inconclusive [inhibitor, full curve, poor fit]",
COC(=O)c1c(NC(=O)CSc2nnc(-c3ccco3)n2C)sc(C)c1C,"inconclusive [inhibitor, single point]",
COc1ccc(Cl)cc1NC(=S)NCCSc1ccc(C)cc1,"inconclusive [inhibitor, single point]",
CC(=O)Nc1ccc2nc3ccccc3nc2c1,"inconclusive [inhibitor, single point]",
Cc1ccc(C(C)C)c(OCC(=O)Nc2ccc3c(c2)nc(CN2CCCC2)n3C)c1,"inconclusive [inhibitor, partial curve]",
CCC1CCC(C(=O)NC(C(=O)Nc2ccc3c(c2)OCCO3)C(C)C)CC1 (stereo not given),"inconclusive [inhibitor, single point]",
Cc1c(Cl)c(C(F)F)nn1CC(=O)NC1C(=O)N2C(C(=O)O)=C(CSc3nnnn3C)CSC12 (stereo not given),"inconclusive [inhibitor, partial curve]",
Cc1ccc(Cl)cc1NC(=O)Cn1c(=O)n(CCC(=O)N2CCc3ccccc3C2)c(=O)c2ccccc21,"inconclusive [inhibitor, partial curve]",
NC(=O)c1ncn(C2OC(CO)C(O)C2O)c1N (stereo not given),"inconclusive [inhibitor, single point]",
CCSc1nc(=S)cc(C)[nH]1,"inconclusive [inhibitor, partial curve, poor fit]",
c1ccc(-c2cc(N3CCOCC3)nc(-c3ccccc3)n2)cc1,"inconclusive [inhibitor, partial curve, poor fit]",
Cc1cc(C)cc(OCC(=O)Nc2cccc(-c3nc4ccccc4[nH]3)c2)c1,active: 22.4 µM,
O=C(Cn1c(=O)n(-c2ccc(F)cc2)c(=O)c2sccc21)Nc1cccc(C(F)(F)F)c1,"inconclusive [inhibitor, partial curve]",
COn1c(C)c(C(C)=O)c2c3nonc3ccc21,"inconclusive [inhibitor, partial curve, poor fit]",
Cc1cc(C)c(C(=O)/C=C/c2ccco2)c(=O)[nH]1,"inconclusive [inhibitor, partial curve, poor fit]",
Cc1c(CBr)[n+](=O)c2c(n1[O-])C(Br)CCC2Br (stereo not given),"inconclusive [inhibitor, partial curve]",
CC#CCN1c2ccccc2[C@]23C[C@@H](C(=O)OC)N(S(=O)(=O)CCCC)C2=NC(C(=O)OC)=C(C(=O)OC)[C@H]13,,inactive: 5.47% [at 11.6 µM]
CCOC(=O)c1sc(N(Cc2ccccc2)C(=O)COC(=O)c2ccc(O)cc2)nc1C,active: 14.1 µM,
Cc1nc(SCC#N)c2c(C)c(C)sc2n1,"inconclusive [inhibitor, single point]",
O=C(Nc1ccccc1)Nc1ccc(Cl)c([N+](=O)[O-])c1,"inconclusive [inhibitor, partial curve]",
O=[N+]([O-])c1cc(C2Nc3cccc4cccc(c34)N2)ccc1Cl,"inconclusive [inhibitor, single point]",

SMILES,Potency,"activity, negative = inhibition"
CCCCOCCCNC(=S)Nc1ccc(S(=O)(=O)N2CCOCC2)cc1,"inconclusive [inhibitor, partial curve]",
CCOCC(=O)Nc1cc(C(=O)OC)ccc1C(=O)OC,"inconclusive [inhibitor, single point]",
CCOC(=O)C(=NCCCN1CCOCC1)NNc1cccc(C(F)(F)F)c1,inactive,
Clc1c(CSc2nc3ccccc3o2)nc2ccccn12,"inconclusive [inhibitor, single point]",
O=C(NNc1nc(-c2ccccc2)cs1)c1cccs1,inactive,
CCCCC1=CC2=C(c3ccco3)C(=O)C(C)(OC(=O)c3ccc(OC)cc3)C(=O)C2=CN1CCc1c[nH]c2ccccc12 (stereo not given),,inactive: -1.77% [at 11.6 µM]
CCOc1ccc(-c2c(C)nn3c(C)c(C(=O)NCC(C)c4ccccc4)cnc23)cc1OCC (stereo not given),"inconclusive [activator, partial curve, poor fit]",
O=C(NCc1ccccc1)NC1CCCCC1,inactive,
COc1cccc2c1NC(C(=O)O)C1CC=CC21 (stereo not given),"inconclusive [inhibitor, partial curve, poor fit]",
Cc1cc(C)c(NC(=O)COc2ccccc2C(=O)Nc2ccc3c(c2)oc2ccccc23)c(C)c1,"inconclusive [inhibitor, single point]",
Cc1onc(-c2ccc(Cl)cc2)c1-c1ccnc(SCC(=O)Nc2ccc(C(C)C)cc2)n1,"inconclusive [inhibitor, partial curve]",
CN1CCN(CCC(=O)Nc2ccc(F)c(F)c2)CC1,"inconclusive [inhibitor, single point]",
CCCCn1nc(-c2ccccc2)c2nc3ccccc3nc21,"inconclusive [inhibitor, single point]",
Cn1ncc2c(Nc3ccc(Br)cc3)nc(Nc3ccc(Br)cc3)nc21,active: 10 µM,
O=C(O)c1ccccc1Nc1cccc(C(F)(F)F)c1,inactive,
CO/N=C(\c1nonc1N)N1CCN(c2ccc([N+](=O)[O-])cc2Cl)CC1,"inconclusive [inhibitor, single point]",
S=C(NCc1cccs1)Nc1cccc(Cl)c1Cl,inactive,
CN1CCN(C(=S)Nc2cccc(S(=O)(=O)N(C)C)c2)CC1,"inconclusive [inhibitor, full curve, poor fit]",
COc1ccccc1C1C=C(c2ccc(Cl)cc2)Nc2nc(-c3ccc(Cl)cc3)nn21 (stereo not given),inactive,
Cc1ccccc1CSc1nc2cccnc2n1Cc1ccc(C(=O)NCCc2cccs2)cc1,inactive,
CCOC(=O)c1[nH]c2ccc(OC)cc2c1NC(=O)c1ccc(OC)c(OC)c1,"inconclusive [activator, partial curve]",
